Test results taken from article PMC4336329 (PLoS ONE, 2015).
About 2,200 (0.71%) of roughly 310,000 compounds showed an effect of 50% or more. Effects have a minus sign here. The list shows a part of the results.

target: human ether-à-go-go-related gene (hERG) potassium channel (human, UniProt Q12809); test: primary screen, population patch clamp on CHO cells stably expressing hERG
Sequence (Q12809 whole entry, looked up): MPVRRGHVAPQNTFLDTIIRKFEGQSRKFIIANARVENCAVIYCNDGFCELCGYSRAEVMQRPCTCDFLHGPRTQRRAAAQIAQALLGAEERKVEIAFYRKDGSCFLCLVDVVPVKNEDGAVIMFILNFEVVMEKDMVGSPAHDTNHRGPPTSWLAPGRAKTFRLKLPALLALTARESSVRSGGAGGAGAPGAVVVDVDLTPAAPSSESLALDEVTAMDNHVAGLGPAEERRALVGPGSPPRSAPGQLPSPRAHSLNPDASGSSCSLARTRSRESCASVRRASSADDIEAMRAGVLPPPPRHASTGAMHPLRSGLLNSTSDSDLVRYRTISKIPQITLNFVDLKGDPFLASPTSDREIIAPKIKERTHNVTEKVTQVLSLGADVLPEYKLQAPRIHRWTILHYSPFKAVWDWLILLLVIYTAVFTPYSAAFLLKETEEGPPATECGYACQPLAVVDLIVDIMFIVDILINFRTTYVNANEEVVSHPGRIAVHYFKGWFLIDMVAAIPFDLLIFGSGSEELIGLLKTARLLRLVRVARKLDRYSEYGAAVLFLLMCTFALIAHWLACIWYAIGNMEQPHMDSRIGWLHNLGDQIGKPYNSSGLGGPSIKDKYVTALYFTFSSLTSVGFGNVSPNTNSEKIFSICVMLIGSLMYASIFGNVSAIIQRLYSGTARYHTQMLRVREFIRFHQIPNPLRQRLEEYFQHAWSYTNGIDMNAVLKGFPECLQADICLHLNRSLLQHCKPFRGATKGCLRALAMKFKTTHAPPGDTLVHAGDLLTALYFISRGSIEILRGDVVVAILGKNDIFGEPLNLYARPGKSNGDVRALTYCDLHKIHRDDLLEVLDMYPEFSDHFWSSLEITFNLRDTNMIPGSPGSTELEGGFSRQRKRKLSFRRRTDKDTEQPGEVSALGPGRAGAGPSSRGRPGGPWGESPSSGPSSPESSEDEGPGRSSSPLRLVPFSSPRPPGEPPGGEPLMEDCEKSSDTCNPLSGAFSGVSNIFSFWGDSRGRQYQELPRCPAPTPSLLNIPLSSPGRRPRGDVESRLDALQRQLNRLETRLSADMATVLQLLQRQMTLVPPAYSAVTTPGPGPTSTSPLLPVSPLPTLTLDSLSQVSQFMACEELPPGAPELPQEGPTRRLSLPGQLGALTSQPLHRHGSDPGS

| SMILES | hERG current change (%, negative = inhibition) at 1uM |
| --- | --- |
| c1ccc2c(Nc3nnc(-c4ccncc4)s3)cccc2c1 | 4.88% |
| Cc1cccc(CNC(=O)C(C)n2nc(C)c3c(C)n(-c4ccccc4)nc3c2=O)c1 (centres unmarked) | -2.53% |
| O=C(CSc1nnc(C2CC2)n1C1CC1)c1ccc(F)c(F)c1 | -6.81% |
| CC(=O)N1CCOc2ccc(S(=O)(=O)N3CCCC(C)C3)cc21 (centres unmarked) | 13.9% |
| O=C(O)CNC(=O)C12CC3CC(CC(Cl)(C3)C1)C2 | 9.46% |
| O=C(CCNC(=O)N1CCn2c1nc1ccccc12)NCc1ccccc1 | 15.4% |
| Cc1ccc(N=Nc2c(N)nn(-c3ccccc3)c2N)cc1 | 5.45% |
| COCCn1cc(C(=O)NCCCN2CCC(C)CC2)c2c3ccccc3n(C)c2c1=O | 3.23% |
| O=C(Cn1c(=O)oc2ccccc21)Nc1ccc2c(c1)OCCO2 | 1.2% |
| COc1ccc(CCNC(=O)COC(=O)c2ccc(N3CCCC3=O)cc2)cc1 | 8.56% |
| O=S(=O)(NCCc1ccc(F)cc1)c1cccc2cccnc12 | 8.85% |
| CCn1c(SCC(=O)c2c(N)n(C)c(=O)n(C)c2=O)nnc1-c1ccccc1 | 14.2% |
| O=C(NNS(=O)(=O)c1ccccc1)c1cnn(-c2ccc(Cl)cc2)c1C(F)(F)F | 9.22% |
| Nc1nonc1C(=O)N1CCCC1 | 7.85% |
| COC(CN(C)C(=O)C1CCC(CNS(=O)(=O)c2ccc(C)cc2)CC1)OC (centres unmarked) | 9.91% |
| Cc1cc(C)c(C(=O)COC(=O)Cn2cnnn2)cc1C | -5.32% |
| Cc1ccc(S(=O)(=O)Nc2cc(-c3ccccc3)nn2C)cc1 | 15.2% |
| COc1cccc(C2(O)CCN(CC(=O)Nc3nc(C)cs3)CC2)c1 | 6.84% |
| CC1CN(c2cc(=O)n(-c3ccccc3)c(=O)[nH]2)CC(C)O1 (centres unmarked) | 7.71% |
| O=C(OCC(=O)c1ccco1)c1ccc2ncsc2c1 | 2.76% |
| O=S(=O)(NCCS(=O)(=O)N1CCN(c2ccccc2)CC1)c1ccc(F)cc1 | 4.93% |
| NC(=O)CC(NC(=O)Cc1ccc(Br)cc1)c1ccc(NCCN2CCCC2)c([N+](=O)[O-])c1 (centres unmarked) | -7.71% |
| CCCc1[nH]nc2c1C(c1ccc(OC)c(CSC3=NCCS3)c1)C(C#N)=C(N)O2 (centres unmarked) | -0.0834% |

| SMILES | hERG current change (%, negative = inhibition) at 1uM |
| --- | --- |
| CC(CC(=O)NCc1ccc(Cl)cc1)S(=O)(=O)c1ccc2c(c1)NC(=O)CO2 (centres unmarked) | -3.77% |
| COc1ccc(CCNC(=O)c2ccc3nc(-c4ccco4)c(-c4ccco4)nc3c2)cc1OC | 5.6% |
| COc1ccc([N+](=O)[O-])cc1NC(=O)c1cn(-c2ccc(Cl)cc2)c(=O)c2ccccc12 | 12.1% |
| C=Cc1ccc2c(c1)OCCOCCOCCOCCOCCO2 | -70.2% |
| Clc1nc(-c2cccnc2)nc2scc(-c3ccccc3)c12 | 14% |
| CS(=O)(=O)N(CC(=O)N1CCC(C(N)=O)CC1)c1cc(C(F)(F)F)ccc1Cl | 14.5% |
| NC(=O)N/N=C/c1sc(N2CCCCC2)nc1-c1cccs1 | 2.09% |
| O=C(NCC(c1ccco1)N1CCCC1)c1ccc(Cl)cc1 (centres unmarked) | -3.7% |
| O=C(CN1C(=O)c2cccc3cccc(c23)C1=O)N1CCCCC1 | 9.42% |
| CCOc1ccc(NC(=O)CC2C(=O)N(c3ccccc3)C(=O)N2CCc2cccs2)cc1 (centres unmarked) | 8.68% |
| Cc1ccc(-n2nc3c(n2)/C(=N/O)CC/C3=N\O)cc1 | 5.06% |
| CCCOc1ccc2c3c(c(=O)oc2c1)CCCC3 | 0.385% |
| c1ccc(C2[C@H]3CN(Cc4cccnc4)[C@H](c4ccccc4)C34CC2(c2ccccc2)C4)cc1 (some centres unmarked) | 0.165% |
| Cc1ccsc1C(=O)C1CCCN(Cc2cccc(OCCO)c2)C1 (centres unmarked) | 0.385% |
| CCCCN(CCCC)Cc1ccc(C(=O)NN)o1 | 6.48% |
| CC(C)c1ccc(CN(C(=O)c2cccs2)C2CCS(=O)(=O)C2)cc1 (centres unmarked) | -1.45% |
| COc1cc2[nH]c(=S)n(C3CCCC3)c(=O)c2cc1OC | 12.5% |
| C1COCCO1.Cc1onc(-c2ccccc2)c1C(=O)Nc1ccccc1C#N | 8.48% |
| O=S(=O)(/N=C(/Nc1ccccc1F)c1ccccc1)c1ccccc1 | 6.69% |
| CCN(CC)CCCOC(=O)C(c1ccccc1)c1ccccc1.Cl | -29.3% |
| CCC1C(=O)CC(c2ccccc2)NC1c1ccccc1 (centres unmarked) | 5.67% |
| Cn1c(=O)c2c(SCc3ccccc3)nc(C3CC3)nc2n(C)c1=O | 3.04% |
| CC1CCC(n2c(=S)[nH]c3ccccc3c2=O)CC1 (centres unmarked) | 3.99% |

| SMILES | hERG current change (%, negative = inhibition) at 1uM |
| --- | --- |
| COc1ccc(NC(=O)CC2(CC(=O)O)CCCC2)cc1 | 14.2% |
| CN(CCOc1ccc(Cl)cc1)C(=O)CN1C(=O)NC2(CCCC2)C1=O | 3.12% |
| CSc1ccccc1Sc1cc(C(=O)O)c2ccccc2n1 | 11.9% |
| CCn1c(C)[n+](CC)c2ccc(C(=O)N(C)c3ccccc3)cc21.[I-] | 25.5% |
| O=C(CCC(=O)N1CCSc2ccccc21)NCc1cccc(Cl)c1 | 2.96% |
| Cc1cc([N+](=O)[O-])nn1CC(=O)NCc1ccc(Cl)cc1 | 0.88% |
| COc1ccc(/C=C(/Sc2nnc(-c3ccc(Cl)cc3)o2)C(=O)O)cc1 | 10% |
| C=CCN(c1ccccc1)S(=O)(=O)c1cccc(C(=O)N2CCN(c3ncccn3)CC2)c1 | 0.212% |
| CC(C)(C)c1ccc(S(=O)(=O)N2CCN(CC(=O)NC(=O)NC3CCCCC3)CC2)cc1 | 11.1% |
| NNc1nc2c(Cl)ccc(Cl)c2s1 | 13.9% |
| COc1cccc(NC(=O)CNCc2ccccc2)c1.Cl | 21.7% |
| Cc1ccc(S(=O)(=O)NNC(=O)c2sc3nc(C)cc(C)c3c2-n2cccc2)cc1 | 10.6% |
| CCOc1ccc(C(=O)NNC(=O)c2cc(S(=O)(=O)N3CCOCC3)ccc2Cl)cc1 | 3.73% |
| CCN1CCN(Cc2oc(CO)cc(=O)c2O)CC1 | -4.58% |
| O=C(NCc1cccnc1)C1CCN(S(=O)(=O)N2CCC3(CC2)OCCO3)CC1 | 4.15% |
| COCc1cc(C)nc(SCC[N+](C)(C)CC(=O)Nc2ccccc2)c1C#N.[Cl-] | 7.03% |
| CCc1ccc(C(=O)NCc2cccs2)s1 | 2.67% |
| O=C(CC(=O)Nc1ccc(F)cc1)Nc1ccc(F)cc1 | 9.83% |
| CCc1ccc(/C=C2\SC(=S)N(CCC(=O)NCCCN3CCOCC3)C2=O)cc1 | 6.25% |
| O=C(CSc1nnc(-c2cccnc2)n1CCN1CCCCC1)Nc1cccc(Cl)c1 | -80.3% |
| CNc1ncc(C(=O)c2ccccc2)s1 | -10.3% |
| CCc1ccccc1NC(=O)CCNS(=O)(=O)c1cc(Br)cnc1N | 0.979% |
| O=c1cc(N2CCN(c3ccccc3)CC2)[nH]c(=O)n1Cc1ccc(F)cc1 | -6.2% |

| SMILES | hERG current change (%, negative = inhibition) at 1uM |
| --- | --- |
| CCOC(=O)c1sc(=NC(=O)c2ccc(S(=O)(=O)N3CC(C)OC(C)C3)cc2)n(C)c1C (centres unmarked) | 5.26% |
| O=C(OCc1ccccc1)c1cccnc1Cl | 7.35% |
| Cc1cccc(OCCn2c(=O)oc3ccc(C)cc32)c1 | 9.97% |
| O=C(NCCCN1CCCC1=O)c1cc2nc(-c3ccco3)cc(C(F)(F)F)n2n1 | 12.2% |
| CCOc1cc(C(=O)Nc2cc(F)ccc2C)ccc1OCC(=O)N1CCOCC1 | 1.06% |
| CN1CCC23c4ccccc4NC1C21CCN(C)C3Nc2ccccc21 | 9.69% |
| Cc1ccc(Oc2ccc(NC(=O)CSc3n[nH]c(N)n3)cc2)cc1 | 7.85% |
| C/C(CC(=O)Nc1cccnc1)=N\NC(=O)c1ccc([N+](=O)[O-])c(Cl)c1 | -3.98% |
| COc1ccc(C(=O)NCCc2cnc[nH]2)cc1OC | 16.7% |
| COc1ccccc1/C=C/CN1CCCC(CO)(Cc2cccc(Cl)c2)C1 (centres unmarked) | -1.86% |
| COc1ccc(C(=O)COC(=O)CCC(=O)Nc2ccc(C(C)=O)cc2)cc1 | 8.47% |
| CCOc1ccc(C(=O)NCC(=O)N2CCCCCCC2)cc1 | 2.6% |
| CCOc1ccc(NC(=O)CN(C2CCCCC2)S(C)(=O)=O)cc1 | 3.93% |
| COc1ccccc1-c1c(C#N)c(N)nc2c1CCc1ccccc1-2 | 25% |
| Clc1ccc(C2=Nn3c(nnc3-c3cccnc3)SC2)s1 | 3.58% |
| COc1ccc(CNC(=O)[C@H](CCSC)NC(=O)N2CCn3c2nc2ccccc23)cc1 | 12.2% |
| O=C(NCCCN1CCCC1=O)C1CCN(S(=O)(=O)c2cccc(C(F)(F)F)c2)CC1 | 23.6% |
| CC(=O)C1=C(O)C(=O)N(Cc2cccnc2)C1c1ccc(C(C)C)cc1 (centres unmarked) | 11.3% |
| CC(=O)Oc1ccc(/C=C/c2nc3ccccc3c(=O)o2)cc1 | 13.7% |
| Cn1c(/C(C#N)=C(\O)CN2CCN(Cc3ccccc3)CC2)nc2ccccc21 | -20% |
